# Measurements from the supplement of paper PMC10338343.
# ± gives the standard deviation. Whole data set: some 3,000 sequences, median “pre-steady-state target cleavage rate” near 0.0079, cut for the highest 2% near 0.2. The list shows a part of the results, in another mix than the full data.
# Test system: MILI (PIWIL2) piRISC loaded with piRNA #2 (26 nt)
# Experiment: pre-steady-state target cleavage rate (min^-1); MIWI and MILI are mouse PIWI proteins and EfPiwi is from a freshwater sponge; tags in brackets are library labels; higher = faster piRNA-guided slicing of the target
# Conditions: guide: piRNA #2 5'p-UUAGGUAACCCAGUAGAUCCAGAGGA; auxiliary factor: 500 nM mouse GTSF1
# Description: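 Cleave-'n-Seq: a library of target RNAs (target site embedded in constant flanks, ACAGCATTCCGCGTTAGTGATATCCG... 5' flank; DNA-blocked outside the site) at 0.1 nM was incubated with 1 nM active mouse MILI or MIWI piRISC (synthetic 5'-monophosphorylated piRNA guide) with or without 500 nM mouse GTSF1 at 33 °C for 1 min to 16 h. Uncleaved targets were sequenced and normalised to non-target controls, and the pooled three trials were fitted to a burst-and-steady-state model to give the pre-steady-state cleavage rate (min^-1; k3 is constrained to at most 1e-4). Sequence is the target site only; target names encode pairing extent (gX:gY) and contiguous / 1-mismatch / 2-mismatch / bulge geometry. Fits with R² ≤ 0 are excluded.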
row,Sequence,pre-steady-state target cleavage rate
1,CUUAACCUCUGGAUCUACUGGGUUACUCUAA,0.123 ± 0.026
2,CUUAACCUCUGGAUCUACAGGGAUACCUAA,0.0435 ± 0.011
3,CUUAAGGUCUGGAUCUACUGGGUUACGCUAA,0.127 ± 0.023
4,CUUAAGGAGAGGAUCUACUGGGUUAACCUAA,0.00517 ± 0.0051
5,CUUAACCAUCUGGAUCUACUGGGUUACCUAA,0.122 ± 0.025
6,CUUAACGUCUGGUUCUACUGGGUUACCUAA,0.158 ± 0.026
7,CUUAAGGAGUGGAUCUACUGGGUUACACUAA,0.0115 ± 0.0053
8,CUUAACCUCUGGAUGUACUGGGUUACCAAA,0.0793 ± 0.019
9,CUUAUCCUCUGGACUACUGGGUUACCUAA,0.133 ± 0.027
10,CUUAAGCUCUGGAUCUUCUGGGUUACCUAA,0.043 ± 0.012
11,CUUAAGCUCUGGUAGUACUGGGUUACCUAA,0.0538 ± 0.018
12,CUUAUCCUCUGGAUCUACUGGGUUACUUAA,0.114 ± 0.02
13,CUUAAGGACCGGAUCUACUGGGUUACCUAA,0.027 ± 0.022
14,CUUAACUCUCUGGAUCUACUGGGUUACCUAA,0.0665 ± 0.022
15,CUUAAGGUCAGGAUCUACUGGGUUACCUAA,0.0467 ± 0.016
16,CUUAAGCUCUGGAUCUACUGCGUUACCAAA,0.00805 ± 0.0058
17,CUUAAGGUCUGGAUCUACAGGGUUUCCUAA,0.103 ± 0.024
18,CUUAAGGAGAGAUCUACUGGGUUACCUAA,0.00723 ± 0.0036
19,CUUAACCUCUGGAUCUCUGGGUUACCUAA,0.00889 ± 0.0054
20,CUUAUCCUCUGGAUCUUCUGGGUUACCUAA,0.105 ± 0.019
21,CUUAAGGAGUGGAUCUACUGGGUUACGUAA,0.0045 ± 0.0042
22,CUUAAGGAGAGGAUCUACUGGGUUACCUCA,0.00557 ± 0.0041
23,CUUAUCGUCUGGAUCUACUGGGUUAGCUAA,0.0155 ± 0.008
24,CUUAAGGUCUGGAUCUACUGGGUUACCGAA,0.0348 ± 0.01

row,Sequence,pre-steady-state target cleavage rate
1,CUUAACCUCUGGAACUUCUGGGUUACCUAA,0.103 ± 0.028
2,CUUAAGGACUGGAGCUACUGGGUUACCUAA,0.0233 ± 0.012
3,CUUAUGCUCUGGAUCUACUGGGUUACCUAA,0.0726 ± 0.012
4,CUUAAGCUCUGGAUCUACAGGGUUACCUUA,0.045 ± 0.01
5,CUUAAGGAGACGAUCUUCAGGGUUACCUAA,0.0054 ± 0.003
6,CUUAAGGUCUGGAUCUACUGGGUUACCAA,0.0545 ± 0.012
7,CUUAUCCUCAGGAUCUACUGGGUUACCUAA,0.114 ± 0.021
8,CUUAAGGUCUGGAUGAUCUGGGUUACCUAA,0.00928 ± 0.0075
9,CUUAAGCUGACGAUCUACUGGGUUACCUAA,0.0365 ± 0.015
10,CUUAUCCUCUGGAUCAACUGGGUUACCUUA,0.0776 ± 0.018
11,CUUAUCCUCUGGAAGAACUGGGUUACCUAA,0.0135 ± 0.0073
12,CUUAAGCUCUGGAUCUACUGGGAUAGCUAA,0.0319 ± 0.0099
13,CUUAACCUCUGGAUCUACUGGGUUACCUAU [g2:g25:cont:t1U],0.14 ± 0.027
14,CUUAAGCUCUGGAUCUACUGGGUUUCCUUA,0.083 ± 0.025
15,CUUAACCUCUCGAUCUUCUGGGUUACCUAA,0.143 ± 0.026
16,CUUAAGGUCUGGAUCUACUGGGUAACCUAA,0.0247 ± 0.0096
17,CUUAAGGUCUGGAUCUACUGGGUUACCUCAA,0.0674 ± 0.015
18,CUUAAGGAGUGGAUCUACUGGGUUACGUUA,0.0049 ± 0.0037
19,CUUAAGGAGUGGAUCAACAGGGUUACCUAA,0.0156 ± 0.005
20,CUUAAGCUUUGGAUCUACUGGGUUACCUAA,0.103 ± 0.024
21,CUUAACCUCUGGUUCUACUGGGUUAGCUAA,0.0494 ± 0.022
22,CUUAACCUCUGGAUCUACUGGGAUAGCUAA,0.0457 ± 0.016
23,CUUAACCUCUGGAACUAGUGGGUUACCUAA,0.0705 ± 0.016
24,CUUAUGCUCUGGAUCUACAGGGUUACCUAA,0.0815 ± 0.01

row,Sequence,pre-steady-state target cleavage rate
1,CUUAAGGGCUGGAUCUACUGGGUUACCUAA,0.0437 ± 0.019
2,CUUAUCCUCUGGAUCUACUGGGUUUCCUAA,0.252 ± 0.072
3,CUUAAGGAGACCUACUAUCUGGGUUACCUAA,< 0.0001
4,CUUAUCCUCUGGAUCUUCUGGGUUACCAAA,0.0923 ± 0.02
5,CUUAAGCUCUGGAUCUACUGGGUUCCUAA,0.0109 ± 0.0054
6,CUUAUCCUCUGGAUCAACUGGGAUACCUAA,0.0168 ± 0.0061
7,CUUAAGGUCUGGAUCUAGUGGGUUUCCUAA,0.0567 ± 0.016
8,CUUAUCCACUGGAUCUACUGCGUUACCUAA,0.01 ± 0.0035
9,CUUAAGGAGUGGAUCUACUGGGUUACUUAA,0.0133 ± 0.0061
10,CUUAAGGACUGGAUGUAGUGGGUUACCUAA,0.0169 ± 0.0074
11,CUUAAGGACUGGAUCUAUUGGGUUACCUAA,0.0187 ± 0.0078
12,CUUAACCUCUGGAUCAUGUGGGUUACCUAA,0.0042 ± 0.004
13,CUUAAGCUCAGGAUGUACUGGGUUACCUAA,0.0733 ± 0.014
14,CUUAACCUCUGGAUCUACUGGGUUGACCUAA,0.0901 ± 0.021
15,CUUAACCUCUGGAUCUACAGGGUUACCAAA,0.0393 ± 0.011
16,CUUAAGCUCUGCAUCUACUGGGUUACCAAA,0.0827 ± 0.019
17,CUUAAGGAGAGGAUCUAGCUGGGUUACCUAA,< 0.0001
18,CUUAAGCUCUGGAUUCUACUGGGUUACCUAA,0.0799 ± 0.023
19,CUUAUCCUCUGGAUCUUCUGGGUUACGUAA,0.0581 ± 0.016
20,CUUAACCUCUGGAUCCUACUGGGUUACCUAA,0.0602 ± 0.017
21,CUUAAGGAGAGGUAUCUACUGGGUUACCUAA,0.00554 ± 0.0041
22,CUUAAGCUCUCGAUCUACAGGGUUACCUAA,0.0883 ± 0.013
23,CUUAAGGACUGGUUCUACUGGGUUACCUUA,0.0139 ± 0.01
24,CUUAACCUCUGGAUUUACUGGGUUACCUAA,0.137 ± 0.024
